# Hit rate of the full screen: of about 360,000 compounds, about 16,000 (4.4%) were called active. Inconclusive means that the source gave no clear call. Such entries were picked first, then a sample of the others. Calls come from the whole dose curve; as a rule, active = well fitted inhibition curve with a large enough effect; inconclusive = small, poorly fitted or top-dose-only effect; inactive = no such curve, though single readings can be large or run the other way. Potencies beside an inconclusive call are fits to weak or partial responses and may not hold up.
# Target: Bromodomain adjacent to zinc finger domain protein 2B (Homo sapiens) (UniProt Q9UIF8)
# Assay: qHTS Assay for Inhibitors of BAZ2B; note: nearly all actives have a fitted effect of over 60% in size
# Details: AlphaScreen BAZ2B-H3K14Ac peptide displacement; series mostly up to 114 µM
# How it was run: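 Protein-peptide AlphaScreen: BAZ2B 50 nM, b-H3K14Ac 50 nM, 1x PBS pH 7.4 + 0.01% Tween-20. Preincubation 30 min RT; cpd 30 min RT (top 110 uM); beads 20 min RT, light-protected.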
# Potency is the fitted concentration of half-maximal effect; tags give direction and shape of the fitted curve.
# Chain of UniProt Q9UIF8 (Q9UIF8 whole entry, looked up, the tested form may be a part): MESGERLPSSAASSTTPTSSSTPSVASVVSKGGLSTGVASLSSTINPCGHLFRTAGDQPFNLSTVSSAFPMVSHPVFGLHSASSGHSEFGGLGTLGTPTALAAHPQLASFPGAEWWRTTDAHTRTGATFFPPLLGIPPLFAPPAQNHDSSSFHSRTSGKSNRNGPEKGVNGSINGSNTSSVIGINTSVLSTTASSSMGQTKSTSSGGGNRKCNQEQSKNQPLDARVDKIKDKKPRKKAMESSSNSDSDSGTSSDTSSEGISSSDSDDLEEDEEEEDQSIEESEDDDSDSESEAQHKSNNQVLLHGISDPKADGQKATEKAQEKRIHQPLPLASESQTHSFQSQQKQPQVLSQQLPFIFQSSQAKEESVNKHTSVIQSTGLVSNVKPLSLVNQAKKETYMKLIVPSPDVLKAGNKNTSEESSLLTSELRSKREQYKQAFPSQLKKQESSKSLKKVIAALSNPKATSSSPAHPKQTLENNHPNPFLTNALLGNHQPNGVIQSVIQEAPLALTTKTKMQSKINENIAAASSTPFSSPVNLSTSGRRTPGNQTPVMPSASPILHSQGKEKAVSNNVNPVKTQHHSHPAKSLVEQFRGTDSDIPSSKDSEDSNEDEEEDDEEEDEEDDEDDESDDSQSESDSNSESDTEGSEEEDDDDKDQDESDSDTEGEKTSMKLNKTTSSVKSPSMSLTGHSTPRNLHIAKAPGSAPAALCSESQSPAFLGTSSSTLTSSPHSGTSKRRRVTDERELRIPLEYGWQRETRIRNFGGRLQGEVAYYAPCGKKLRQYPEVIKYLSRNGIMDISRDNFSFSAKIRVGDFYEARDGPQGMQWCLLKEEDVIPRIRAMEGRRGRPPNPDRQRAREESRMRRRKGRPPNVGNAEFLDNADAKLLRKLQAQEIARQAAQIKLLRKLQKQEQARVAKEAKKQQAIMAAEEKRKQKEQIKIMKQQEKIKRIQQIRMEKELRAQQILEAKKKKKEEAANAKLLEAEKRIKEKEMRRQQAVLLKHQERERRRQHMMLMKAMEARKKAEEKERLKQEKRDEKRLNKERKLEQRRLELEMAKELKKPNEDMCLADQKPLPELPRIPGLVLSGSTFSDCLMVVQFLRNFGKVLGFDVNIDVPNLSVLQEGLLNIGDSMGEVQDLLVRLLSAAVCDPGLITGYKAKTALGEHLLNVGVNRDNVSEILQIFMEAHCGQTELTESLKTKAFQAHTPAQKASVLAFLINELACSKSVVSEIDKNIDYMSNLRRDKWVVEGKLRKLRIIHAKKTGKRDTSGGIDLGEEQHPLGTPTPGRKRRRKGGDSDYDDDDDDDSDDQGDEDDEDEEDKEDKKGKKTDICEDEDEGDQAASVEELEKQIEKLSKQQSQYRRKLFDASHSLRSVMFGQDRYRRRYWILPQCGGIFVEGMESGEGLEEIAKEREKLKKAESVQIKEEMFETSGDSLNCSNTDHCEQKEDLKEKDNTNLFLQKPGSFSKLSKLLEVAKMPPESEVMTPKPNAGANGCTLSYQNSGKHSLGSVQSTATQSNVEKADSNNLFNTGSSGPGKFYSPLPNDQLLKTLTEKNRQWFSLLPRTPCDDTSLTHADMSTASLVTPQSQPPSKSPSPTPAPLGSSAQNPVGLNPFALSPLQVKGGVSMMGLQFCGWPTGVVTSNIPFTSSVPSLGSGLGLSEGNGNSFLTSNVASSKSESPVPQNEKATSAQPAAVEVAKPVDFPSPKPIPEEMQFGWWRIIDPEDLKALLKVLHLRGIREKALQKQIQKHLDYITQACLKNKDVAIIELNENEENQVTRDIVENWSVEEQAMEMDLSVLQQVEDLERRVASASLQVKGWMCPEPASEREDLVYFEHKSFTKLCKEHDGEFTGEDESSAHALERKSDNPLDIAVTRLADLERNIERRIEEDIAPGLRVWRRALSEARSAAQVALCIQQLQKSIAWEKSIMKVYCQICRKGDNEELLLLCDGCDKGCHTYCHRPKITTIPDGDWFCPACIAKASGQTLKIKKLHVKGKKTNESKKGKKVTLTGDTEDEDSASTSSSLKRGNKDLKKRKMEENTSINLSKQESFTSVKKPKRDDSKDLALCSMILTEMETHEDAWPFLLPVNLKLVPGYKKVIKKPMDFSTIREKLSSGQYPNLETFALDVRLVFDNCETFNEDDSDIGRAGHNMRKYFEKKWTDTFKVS
row,Structure (SMILES),Potency
1,CCCN(CCC)c1nc(-c2ccccn2)nc2ccccc12,"inconclusive: 89.1 µM [inhibitor, single point]"
2,COc1cc(NC(=O)N2CCSc3ccccc32)cc(OC)c1OC,"inconclusive: 89.1 µM [inhibitor, single point]"
3,CC1(C)CC(=O)C=C(Nc2ccc(F)cc2)C1,inactive
4,O=C(CSc1nc2ccccc2c(=O)n1NC(=O)Cc1ccccc1)NCc1ccccc1,"inconclusive: 89.1 µM [inhibitor, single point]"
5,Cc1cc(S(=O)(=O)N(Cc2ccc(C(C)C)cc2)CC2CCCO2)ccc1-n1cnnn1 (stereo not drawn),"inconclusive: 89.1 µM [inhibitor, single point]"
6,O=C(CCn1nc(-c2ccccc2)c2ccccc2c1=O)N1CCN(c2ccccc2)CC1,"inconclusive: 89.1 µM [inhibitor, single point]"
7,Cc1ccc2nc(N3C(=O)C(O)=C(C(=O)c4ccc(C)o4)C3c3ccc(O)cc3)sc2c1 (stereo not drawn),"inconclusive: 31.6 µM [inhibitor, full curve, poor fit]"
8,COc1ccc(Oc2cc(NN3CCCCC3)c([N+](=O)[O-])cc2[N+](=O)[O-])cc1OC,"inconclusive: 8.91 µM [inhibitor, full curve]"
9,Cc1ccc(S(=O)(=O)c2nnn3c2nc(NCCCN2CCCC2=O)c2ccccc23)cc1C,"inconclusive: 79.4 µM [inhibitor, single point]"
10,COc1ccc(C(=O)n2nnc3ccccc32)cc1OC,inactive
11,Cc1cc(C)nc(N/N=C/c2c(CO)cnc(C)c2O)n1,active: 79.4 µM
12,CC1(C)CC(=O)C(N=Nc2cccc(F)c2C#N)=C(O)C1,"inconclusive: 79.4 µM [inhibitor, single point]"
13,CCOC(=O)c1ccc(N2NC(=O)/C(=C/c3ccc(OC(=O)c4ccco4)c(OC)c3)C2=O)cc1,"inconclusive: 79.4 µM [inhibitor, single point]"
14,COc1cc(OC)c(OC)cc1CN1CCc2nc(N3CCN(C)CC3)ncc2C1,"inconclusive: 79.4 µM [inhibitor, single point]"
15,O=C1c2oc3ccc(Cl)cc3c(=O)c2C(c2ccccn2)N1CCCN1CCOCC1 (stereo not drawn),"inconclusive: 89.1 µM [inhibitor, single point]"
16,CCc1nn(CC(=O)NCc2ccc(C)cc2)c(=O)c2cc3occc3n12,inactive
17,CCc1nnc(NS(=O)(=O)c2ccc(NC(=S)Nc3ccc(F)cc3)cc2)s1,inactive
18,Nc1ccc(C(=O)N/N=C/c2cccc(Oc3ccccc3)c2)cc1,"inconclusive: 50.1 µM [inhibitor, partial curve]"
19,CCOc1ccc(CN2CCN(Cc3ccc4c(c3)c3ccccc3n4CC)CC2)cc1,active: 10 µM
20,CS(=O)(=O)c1ccc(Cl)c(NC(=O)c2cccc(-n3cnnn3)c2)c1,inactive
21,CCc1ccc(S(=O)(=O)Nc2cc(SCC(=O)O)c(O)c3ccccc23)cc1,"inconclusive: 44.7 µM [inhibitor, partial curve]"
22,CCN(CC)CCOC(=O)c1ccc(N/C=C(/C#N)c2nc(-c3ccc(OC)cc3)cs2)cc1,"inconclusive: 8.91 µM [inhibitor, full curve]"

row,Structure (SMILES),Potency
1,CCOC(=O)C(C(=O)NCc1ccc(C)cc1)c1ncc(C(F)(F)F)cc1Cl (stereo not drawn),inactive
2,CCC[n+]1c2ccccc2cc2ccccc21,active: 44.7 µM
3,CC1=NN(c2ccc(C(=O)O)cc2)C(=O)/C1=C/c1ccc(-c2ccccc2F)o1,"inconclusive: 12.6 µM [inhibitor, partial curve]"
4,COCCCNC(=O)CC(=O)N/N=C\c1ccc(SC)cc1,"inconclusive: 100 µM [inhibitor, single point]"
5,OCC1(CCc2ccccc2)CCN(Cc2cccn2-c2cccnc2)CC1,"inconclusive: 70.8 µM [inhibitor, single point]"
6,Cc1ccc(S(=O)(=O)N(CC(=O)Nc2ccccc2C(=O)O)c2ccc(Cl)cc2)cc1,"inconclusive: 89.1 µM [inhibitor, single point]"
7,C=CCn1c(SCc2ccccc2F)nc2cc(C(=O)O)ccc2c1=O,"inconclusive: 89.1 µM [inhibitor, single point]"
8,CCc1cccc(CC)c1NC(=S)NCc1nc2ccccc2[nH]1,"inconclusive: 79.4 µM [inhibitor, single point]"
9,COc1ccc(C(=O)Nc2ccc(NC(=O)c3cc(OC)c(OC)c(OC)c3)cn2)cc1,"inconclusive: 79.4 µM [inhibitor, partial curve]"
10,O=C(O)c1c(Cl)cccc1Cl,"inconclusive: 89.1 µM [inhibitor, single point]"
11,COc1cc(SC)ccc1C(=O)NCCc1c[nH]c2ccccc12,"inconclusive: 39.8 µM [inhibitor, full curve]"
12,CC(C)(C)c1ccc(C(=O)NCCC(=O)N2CCC3(CC2)NCCc2[nH]cnc23)cc1,"inconclusive: 56.2 µM [inhibitor, single point]"
13,CC1=CC(C)(C)Nc2ccc(OC(=O)C(Cc3ccccc3)N3C(=O)C4CCCCC4C3=O)cc21 (stereo not drawn),inactive
14,Cc1sc2c(c1C)CN(C(C)(C)C)CN2C(=O)c1ccccc1,"inconclusive: 7.08 µM [inhibitor, single point]"
15,O=C(CN1CCN(C(c2ccccc2)c2ccccc2)CC1)N1CCOCC1,active: 50.1 µM
16,COc1ccc(NC(=O)Cn2cc(C(=O)c3ccccc3OC)c(=O)c3ccc(C)nc32)cc1OC,"inconclusive: 79.4 µM [inhibitor, single point]"
17,O=C(Nc1ccc2c(c1)OCO2)c1cc(-c2cccnc2)nc2ccccc12,"inconclusive: 39.8 µM [inhibitor, partial curve]"
18,COc1ccc(N=Nc2c(N)n[nH]c2N)cc1,"inconclusive: 70.8 µM [inhibitor, single point]"
19,COc1ccc(NC(=O)CSc2nnc(-c3ccco3)c(-c3ccco3)n2)cc1OC,inactive
20,O=C(Nc1ccccc1N1CCCC1)c1cccc(-c2cc3ccccc3oc2=O)c1,"inconclusive: 50.1 µM [inhibitor, partial curve]"
21,Cc1c(Cl)cccc1NC(=O)CCCN1C(=O)c2cccnc2C1=O,"inconclusive: 79.4 µM [inhibitor, partial curve]"
